Test results reported in the supplement of paper PMC8728848.
The other results are listed elsewhere or left out.

How the values were obtained:
Test in all cases: glycan array binding signal (z-score within array); higher = stronger binding
Conditions in all cases: glycan notation: IUPAC condensed, linker removed
[1] = biological target: GlcNAc(a1-3)Gal(b1-4)GlcNAc
Outline: (§1)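 The binding signal is a Z-score computed within each array. Data were drawn from 3228 arrays in the Consortium for Functional Glycomics database, restricted to those with a known protein sequence. Scores were averaged over arrays of the same protein sequence at different concentrations or buffers, and over linkers, and negative values can be taken as non-binding.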

[2] = biological target: GlcNAc(a1-4)Gal(b1-3)GlcNAc
Outline: as §1

[3] = biological target: GlcNAc(a1-4)Gal(b1-4)GalNAc
Outline: as §1

[4] = biological target: GlcNAc(a1-4)Gal(b1-4)GlcNAc
Outline: as §1

[5] = biological target: GlcNAc(a1-4)Gal(b1-4)GlcNAc(b1-3)Gal(b1-4)Glc
Outline: as §1

[6] = biological target: GlcNAc(a1-4)Gal(b1-4)GlcNAc(b1-3)Gal(b1-4)GlcNAc
Outline: as §1

[7] = biological target: GlcNAc(a1-4)Gal(b1-4)GlcNAc(b1-3)Gal(b1-4)GlcNAc(b1-3)Gal(b1-4)GlcNAc
Outline: as §1

[8] = biological target: GlcNAc(a1-4)Gal(b1-4)GlcNAc(b1-3)Gal(b1-4)[Fuc(a1-3)]GlcNAc(b1-3)Gal(b1-4)[Fuc(a1-3)]GlcNAc
Outline: as §1

[9] = biological target: GlcNAc(a1-6)Gal(b1-4)GlcNAc
Outline: as §1

[10] = biological target: GlcNAc(b1-2)Gal(b1-3)GalNAc
Outline: as §1

[11] = biological target: GlcNAc(b1-2)Man(a1-3)[GlcNAc(b1-2)Man(a1-6)]Man(b1-4)GlcNAc(b1-4)GlcNAc
Outline: as §1

[12] = biological target: GlcNAc(b1-2)Man(a1-3)[GlcNAc(b1-2)Man(a1-6)]Man(b1-4)GlcNAc(b1-4)[Fuc(a1-6)]GlcNAc
Outline: as §1

GlcNAc(b1-3)Gal = biological target: GlcNAc(b1-3)Gal
Outline: as §1

[13] = biological target: GlcNAc(b1-3)Gal(b1-3)GalNAc
Outline: as §1

GlcNAc(b1-3)Gal(b1-4)Glc = biological target: GlcNAc(b1-3)Gal(b1-4)Glc
Outline: as §1

[14] = biological target: GlcNAc(b1-3)Gal(b1-4)GlcNAc
Outline: as §1

[15] = biological target: GlcNAc(b1-3)Gal(b1-4)GlcNAc(b1-3)Gal(b1-4)GlcNAc
Outline: as §1

GlcNAc(b1-3)GalNAc = biological target: GlcNAc(b1-3)GalNAc
Outline: as §1

GlcNAc(b1-3)Man = biological target: GlcNAc(b1-3)Man
Outline: as §1

[16] = biological target: GlcNAc(b1-3)[GlcNAc(b1-4)][GlcNAc(b1-6)]GlcNAc
Outline: as §1

[17] = biological target: GlcNAc(b1-3)[GlcNAc(b1-6)]Gal(b1-4)GlcNAc
Outline: as §1

[18] = biological target: GlcNAc(b1-3)[GlcNAc(b1-6)]GalNAc
Outline: as §1

[19] = biological target: GlcNAc(b1-4)Gal(b1-4)GlcNAc
Outline: as §1

GlcNAc(b1-4)GlcNAc = biological target: GlcNAc(b1-4)GlcNAc
Outline: as §1

[20] = biological target: GlcNAc(b1-4)GlcNAc(b1-4)GlcNAc
Outline: as §1

[21] = biological target: GlcNAc(b1-4)GlcNAc(b1-4)GlcNAc(b1-4)GlcNAc(b1-4)GlcNAc
Outline: as §1

[22] = biological target: GlcNAc(b1-4)GlcNAc(b1-4)GlcNAc(b1-4)GlcNAc(b1-4)GlcNAc(b1-4)GlcNAc
Outline: as §1

[23] = biological target: GlcNAc(b1-4)[GlcNAc(b1-6)]GalNAc
Outline: as §1

[24] = biological target: GlcNAc(b1-6)Gal(b1-4)GlcNAc
Outline: as §1

GlcNAc(b1-6)GalNAc = biological target: GlcNAc(b1-6)GalNAc
Outline: as §1

GlcNAc3Prop(b1-4)GlcNAc = biological target: GlcNAc3Prop(b1-4)GlcNAc
Outline: as §1

[25] = biological target: GlcNAc6S(b1-3)Gal(b1-4)GlcNAc
Outline: as §1

Kdn(a2-3)Gal(b1-3)GalNAc = biological target: Kdn(a2-3)Gal(b1-3)GalNAc
Outline: as §1

Kdn(a2-3)Gal(b1-3)GlcNAc = biological target: Kdn(a2-3)Gal(b1-3)GlcNAc
Outline: as §1

Kdn(a2-3)Gal(b1-4)Glc = biological target: Kdn(a2-3)Gal(b1-4)Glc
Outline: as §1

Kdn(a2-3)Gal(b1-4)GlcNAc = biological target: Kdn(a2-3)Gal(b1-4)GlcNAc
Outline: as §1

[26] = biological target: Kdn(a2-3)Gal(b1-4)[Fuc(a1-3)]GlcNAc
Outline: as §1

Kdn(a2-6)Gal(b1-4)GlcNAc = biological target: Kdn(a2-6)Gal(b1-4)GlcNAc
Outline: as §1

B1: Spy0252 (Streptococcus pyogenes), Q9A1I9_STRP1 (protein)
chain: MNMKKLASLAMLGASVLGLAACGGKSQKEAGASKSDTAKTEITWWAFPVFTQEKAEDGVGTYEKKLIAAFEKANPEIKVKLETIDFTSGPEKITTAIEAGTAPDVLFDAPGRIIQYGKNGKLADLNDLFTEEFTKDVNNDKLIQASKAGDTAYMYPISSAPFYMALNKKMLKDAGVLDLVKEGWTTDDFEKVLKALKDKGYNPGSFFANGQGGDQGPRAFFANLYSSHITDDKVTKYTTDDANSIKAMTKISNWIKDGLMMNGSQYDGSADIQNFANGQTSFTILWAPAQPGIQAKLLEASKVDYLEIPFPSDDGKPELEYLVNGFAVFNNKDEQKVAASKTFIQFIADDKEWGPKNVVRTGAFPVRTSYGDLYKDKRMEKIAEWTKFYSPYYNTIDGFAEMRTLWFPMVQAVSNGDEKPEDALKAFTEKANKTIKKTQ
glycan array binding signal (z-score) [1]: -0.246
glycan array binding signal (z-score) [2]: -0.246
glycan array binding signal (z-score) [3]: -0.243
glycan array binding signal (z-score) [4]: -0.254
glycan array binding signal (z-score) [5]: 0.073
glycan array binding signal (z-score) [6]: 0.176
glycan array binding signal (z-score) [7]: -0.252
glycan array binding signal (z-score) [8]: -0.027
glycan array binding signal (z-score) [9]: -0.273
glycan array binding signal (z-score) [10]: -0.171
glycan array binding signal (z-score) [11]: -0.262
glycan array binding signal (z-score) [12]: -0.186
glycan array binding signal (z-score) (GlcNAc(b1-3)Gal): -0.277
glycan array binding signal (z-score) [13]: -0.105
glycan array binding signal (z-score) (GlcNAc(b1-3)Gal(b1-4)Glc): -0.2
glycan array binding signal (z-score) [14]: -0.267
glycan array binding signal (z-score) [15]: -0.263
glycan array binding signal (z-score) (GlcNAc(b1-3)GalNAc): -0.26
glycan array binding signal (z-score) (GlcNAc(b1-3)Man): -0.263
glycan array binding signal (z-score) [16]: -0.264
glycan array binding signal (z-score) [17]: -0.257
glycan array binding signal (z-score) [18]: -0.259
glycan array binding signal (z-score) [19]: -0.249
glycan array binding signal (z-score) (GlcNAc(b1-4)GlcNAc): -0.22
glycan array binding signal (z-score) [20]: 0.018
glycan array binding signal (z-score) [21]: -0.148
glycan array binding signal (z-score) [22]: 0.095
glycan array binding signal (z-score) [23]: -0.277
glycan array binding signal (z-score) [24]: -0.261
glycan array binding signal (z-score) (GlcNAc(b1-6)GalNAc): -0.204
glycan array binding signal (z-score) (GlcNAc3Prop(b1-4)GlcNAc): 0.218
glycan array binding signal (z-score) [25]: -0.161
glycan array binding signal (z-score) (Kdn(a2-3)Gal(b1-3)GalNAc): -0.249
glycan array binding signal (z-score) (Kdn(a2-3)Gal(b1-3)GlcNAc): -0.248
glycan array binding signal (z-score) (Kdn(a2-3)Gal(b1-4)Glc): 0.495
glycan array binding signal (z-score) (Kdn(a2-3)Gal(b1-4)GlcNAc): -0.267
glycan array binding signal (z-score) [26]: -0.26
glycan array binding signal (z-score) (Kdn(a2-6)Gal(b1-4)GlcNAc): -0.273
